# Experimental data reported in the supplement of paper PMC4723716.
# ± gives the uncertainty stated by the source. Over roughly 9,900 compounds, “viability index relative to DMSO control” has its median near 1; the lowest 2% begin near 0.85. The list shows a part of the results.
# Tested on: Plasmodium falciparum NF54 stage V gametocytes
# Assay: viability index relative to DMSO control (fraction); higher = less gametocyte killing
# Details: 2.5 µM, incubation time: 72 h
# Summary of the method: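 P. falciparum NF54 stage V gametocytes (serum-free medium, 0.75% gametocytemia, 1.25% hematocrit) were exposed to compound at 2.5 µM for 72 hr at 37°C under low oxygen, then stained with MitoTracker Red CMXRos and saponin for one to two hours. Red particles of 20–70 µm2 in one field per well were counted, and the viability index is that count scaled to the plate mean of solvent-only wells.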
# [1] = library set: Broad Institute DOS
Structure (SMILES),viability index [1],viability index (library set: Broad Institute Blood Stage)
N#C[C@@H]1[C@H](c2ccccc2-c2cccc(F)c2)[C@@H](CO)N1C(=O)CN1CCOCC1,1.15 ± 0.16,
C[C@@H]1CN([C@@H](C)CO)C(=O)c2cc(NS(=O)(=O)c3ccc(F)cc3)ccc2O[C@@H]1CN(C)C(=O)Nc1ccccc1,1.03 ± 0.04,
N#C[C@@H]1[C@@H](c2ccccc2-c2cccc(F)c2)[C@@H](CO)N1C(=O)C1CC1,1.15 ± 0.027,
C[C@@H]1CCCCO[C@@H](CN(C)CC2CCCCC2)[C@@H](C)CN([C@H](C)CO)C(=O)c2cc(NC(=O)Nc3ccc(C(F)(F)F)cc3)ccc2O1,0.947 ± 0.14,
CC(=O)N1[C@H](CO)[C@@H](c2ccccc2)[C@@H]1CNC(=O)CN1CCOCC1,1.02 ± 0.038,
COc1ccc2c3c([C@H](CO)N(C[C@]33CCN(CC3)C(=O)c3ccccc3)C(=O)c3ccccc3)n(C)c2c1,0.979 ± 0.13,
O=C(NCC1CC1)[C@H]1[C@H](CO)[C@H]2Cn3c(ccc(C4=CCCC4)c3=O)[C@H]2N1C(=O)C1CC1,1.02 ± 0.08,
OC[C@H]1[C@H](c2ccccc2)C2(CN(Cc3ccccc3F)C2)N1Cc1ccccc1F,1.02 ± 0.033,
O=C(C[C@@H]1CC[C@H]2[C@@H](COC[C@@H](O)CN2S(=O)(=O)c2ccc(F)cc2)O1)NCCN1CCCCC1,1.02 ± 0.062,
C/C=C/c1ccc([C@@H]2[C@@H](C#N)N(c3nc(CC)cs3)[C@H]2CO)cc1,1.1391 ± 5.2e-05,
CCC(=O)N1[C@H](CO)[C@@H](c2ccccc2)C12CN(C(=O)CN1CCOCC1)C2,1.04 ± 0.12,
Cc1ccc(-c2ccc([C@H]3[C@H](CO)N4C(=O)CN(C(=O)NC(C)C)C[C@@H]34)cc2)cc1,1.09 ± 0.061,
C[C@H](CO)N1C[C@H](C)[C@H](CN(C)C(=O)c2ccc3ccn(C)c3c2)OCc2cnnn2CCCC1=O,0.982 ± 0.052,
CO[C@@H]1CN(C)C(=O)c2cc(NS(=O)(=O)c3cccc(Cl)c3)ccc2OC[C@H](C)NC[C@H]1C,1.03 ± 0.099,
C[C@@H]1CCCCO[C@@H](CN(C)C(=O)c2ccncc2)[C@H](C)CN([C@H](C)CO)C(=O)c2cc(NC(=O)CCC(F)(F)F)ccc2O1,1.061 ± 0.0036,
COCC(=O)N1CC2(C1)[C@H](c1ccccc1)[C@@H](CO)N2C(=O)NC1CCCC1,1 ± 0.25,
CN1C(=O)c2cc(NC(=O)Cc3cccs3)ccc2OC[C@@H]2O[C@H](CC(=O)N[C@H]3CCN(Cc4ccccc4)C3)CC[C@@H]21,1.06 ± 0.13,
COc1ccc(C[C@H]2CCc3cnnn3COC[C@H](CC(C)C)NC2=O)cc1,1.04 ± 0.16,
Cc1noc(C)c1NC(=O)N(C)C[C@@H]1OCc2cnnn2CCCC(=O)N([C@@H](C)CO)C[C@H]1C,1.01 ± 0.063,
O=C(Nc1ccc(C(F)(F)F)cc1)N1C[C@@H]2N[C@H](C1)[C@@H]2c1ccc(-c2cccnc2)cc1,,0.981 ± 0.042
CNC[C@H]1Oc2ccc(NC(=O)NC3CCCCC3)cc2CC(=O)N([C@@H](C)CO)C[C@@H]1C,1.01 ± 0.051,
O=C(N[C@H]1C=C[C@H](CC(=O)N2CCC(Cc3ccccc3)CC2)O[C@H]1CO)c1cnccn1,0.985 ± 0.056,
O=C(Nc1ccccc1F)N[C@@H]1CC[C@H](CCNC(=O)C2CC2)O[C@H]1CO,1.1 ± 0.013,
O=C(C[C@H]1CC[C@H](NC(=O)c2cccnc2)[C@@H](CO)O1)NCc1ccc(Cl)c(Cl)c1,1.07 ± 0.1,

Structure (SMILES),viability index [1],viability index (library set: Broad Institute Blood Stage)
C/C=C/c1cnc2c(c1)C(=O)N([C@H](C)CO)C[C@H](C)[C@H](CN(C)C(=O)Nc1cccc(OC)c1)O2,1.01 ± 0.016,
C[C@H]1CCCCO[C@H](CN(C)C(=O)CCCN(C)C)[C@@H](C)CN([C@@H](C)CO)C(=O)c2cc(NS(=O)(=O)c3ccc(Cl)cc3)ccc2O1,1.02 ± 0.12,
C[C@@H]1CN([C@@H](C)CO)C(=O)CCCn2nncc2CO[C@H]1CN(C)S(=O)(=O)c1cn(C)cn1,1.07 ± 0.065,
O=C(C1CCOCC1)N1CC2(C1)[C@@H](c1ccccc1)[C@H](CO)N2C(=O)CC1CC1,1.09 ± 0.078,
Cc1cccc(S(=O)(=O)N2C[C@H](O)COC[C@H]3O[C@H](CC(=O)Nc4ccccc4)CC[C@@H]32)c1,1.09 ± 0.042,
O=C(C[C@H]1CC[C@@H]2[C@H](COC[C@@H](O)CN2Cc2cc(F)cc(F)c2)O1)Nc1nccs1,1.04 ± 0.099,
C[C@@H]1CN([C@H](C)CO)C(=O)c2cc(NC(=O)Nc3ccc(C(F)(F)F)cc3)ccc2O[C@@H](C)CCCCO[C@H]1CN(C)S(=O)(=O)c1ccc(Cl)cc1,1.13 ± 0.12,
N#C[C@@H]1[C@H](c2ccccc2)[C@H](CO)N1C(=O)Nc1cccc(F)c1,1.0953 ± 0.00064,
C/C=C/c1ccc([C@H]2[C@H]3CNC[C@@H]2N3Cc2ccccc2C(F)(F)F)cc1,1.11 ± 0.0059,
C[C@@H](NC(=O)C[C@H]1CC[C@H]2[C@@H](COC[C@H](O)CN2C(=O)Nc2cccc(Cl)c2)O1)c1ccccc1,1.13 ± 0.1,
O=C(C[C@@H]1CC[C@@H](NS(=O)(=O)c2ccc(F)cc2)[C@H](CO)O1)N1CCN(c2ccccc2)CC1,1.05 ± 0.087,
O=C(CN1CCOCC1)N1CC2(C1)[C@@H](c1ccccc1)[C@H](CO)N2Cc1cccc(F)c1,1.08 ± 0.039,
CN1CCN(C(=O)C[C@H]2CC[C@@H]3[C@H](COC[C@H](O)CN3C(=O)Nc3ccc4c(c3)OCO4)O2)CC1,1.08 ± 0.039,
CC(C)c1cn(CC[C@H]2CC[C@H](NS(=O)(=O)c3ccc(F)cc3)[C@@H](CO)O2)nn1,1.1 ± 0.12,
O=C(c1cccc(F)c1)N1C[C@@H]2[C@H](c3ccccc31)[C@H](CO)N2Cc1cocn1,1 ± 0.13,
O=C(NCC[C@@H]1CC[C@H](NS(=O)(=O)Cc2ccccc2)[C@@H](CO)O1)C1CCCCC1,1.04 ± 0.091,
C[C@@H]1CN([C@@H](C)CO)C(=O)c2cc(NC(=O)Nc3ccccc3)ccc2O[C@@H](C)CCCCO[C@H]1CN(C)C(=O)Nc1ccccc1,1.11 ± 0.13,
CO[C@H]1CN(C)C(=O)c2ccc(NC(=O)c3cccc(F)c3)cc2OC[C@H](C)NC[C@H]1C,1.11 ± 0.11,
Cc1noc(C)c1S(=O)(=O)N(C)C[C@H]1OCCCC[C@H](C)Oc2ccc(NS(=O)(=O)c3cn(C)cn3)cc2C(=O)N([C@@H](C)CO)C[C@@H]1C,1.1 ± 0.12,
COCC(=O)N(C[C@H]1N[C@H](CO)[C@@H]1c1ccc(-c2cncnc2)cc1)C(C)C,1.03 ± 0.038,
CN1C(=O)c2cc(NC(=O)C3CCOCC3)ccc2OC[C@@H]2O[C@H](CC(=O)NCC3CCCCC3)CC[C@@H]21,1.12 ± 0.047,
CN1C(=O)c2cc(NC(=O)Nc3ccccc3F)ccc2OC[C@@H]2O[C@@H](CC(=O)NCCc3ccncc3)CC[C@H]21,0.957 ± 0.052,
CO[C@H]1CN(C)C(=O)c2ccc(NC(C)=O)cc2OC[C@@H](C)N(C(=O)c2cnccn2)C[C@@H]1C,0.949 ± 0.018,
COCC(=O)N1C[C@H](C)[C@H](OC)CN(C)C(=O)c2ccc(NC(=O)Nc3cccc(F)c3)cc2OC[C@H]1C,1.01 ± 0.1,

Structure (SMILES),viability index [1],viability index (library set: Broad Institute Blood Stage)
COCC(=O)N1[C@@H](C#N)[C@H](c2ccc(C#Cc3ccccc3F)cc2)[C@@H]1CO,1.07 ± 0.019,
C[C@H]1CN([C@@H](C)CO)C(=O)CCCn2cc(nn2)CO[C@H]1CN(C)C(=O)Nc1cccc(C(F)(F)F)c1,1.04 ± 0.052,
C[C@H](CO)N1C[C@H](C)[C@H](CN(C)Cc2ccc(Cl)c(Cl)c2)Oc2ccc(NC(=O)CCCN(C)C)cc2C1=O,1.08 ± 0.071,
C[C@H](CO)N1C[C@H](C)[C@H](CN(C)S(C)(=O)=O)OCCCC[C@H](C)Oc2ccc(NC(=O)NC3CCCCC3)cc2C1=O,1.15 ± 0.016,
O=C(Cc1ccccn1)N1CC(=O)N2[C@H](C1)[C@H](c1ccc(C#CCC3CCCC3)cc1)[C@@H]2CO,1.032 ± 0.0086,
COc1ccc(NC(=O)N(C)C[C@H]2OCc3cnnn3CCCC(=O)N([C@H](C)CO)C[C@H]2C)c(OC)c1,1.01 ± 0.021,
O=C(C[C@@H]1CC[C@H]2[C@@H](COC[C@@H](O)CN2C(=O)c2ccncc2)O1)Nc1ccc(-c2ccccc2)cc1,1.11 ± 0.073,
CCNC(=O)C[C@H]1CC[C@@H]2[C@H](COC[C@H](O)CN2C(=O)C2CCCC2)O1,1 ± 0.12,
Cc1cccc(S(=O)(=O)N2C[C@@H](O)COC[C@@H]3O[C@H](CC(=O)Nc4ccccc4)CC[C@H]32)c1,1.03 ± 0.046,
CC(C)C[C@H]1COCn2nncc2CC[C@H](C)C(=O)N1,1.06 ± 0.041,
C[C@@H]1CN([C@H](C)CO)C(=O)Cc2cc(NC(=O)C3CCCCC3)ccc2O[C@H]1CN(C)Cc1ccc(Cl)c(Cl)c1,1.05 ± 0.11,
Cc1noc(C)c1NC(=O)N(C)C[C@H]1OCc2ccccc2-c2c(n(C)c3ccccc23)C(=O)N([C@@H](C)CO)C[C@@H]1C,0.976 ± 0.099,
CCC(=O)N1CC(=O)N2[C@@H](CO)[C@@H](c3ccc(C#CCC(C)C)cc3)[C@@H]2C1,1.04 ± 0.013,
C[C@H](CO)N1C[C@H](C)[C@H](CN(C)Cc2ccc3c(c2)OCO3)Oc2ccc(NS(=O)(=O)c3cn(C)cn3)cc2CC1=O,1.03 ± 0.027,
COc1ccc2c3c([C@H](CO)NC[C@]33CN(CC4CCOCC4)C3)n(C)c2c1,1.01 ± 0.077,
CO[C@@H]1CN(C)C(=O)c2cc(NS(=O)(=O)c3ccc(Cl)cc3)ccc2OC[C@@H](C)N(C(=O)NC(C)C)C[C@@H]1C,1.04 ± 0.021,
O=C(C1CCCC1)N1[C@@H](CO)[C@@H](c2ccccc2)C12CN(Cc1ccc(F)cc1)C2,1.11 ± 0.057,
CN(C)c1ccc2c(c1)[C@H]1C[C@@H](CC(=O)NCc3ccccn3)O[C@@H](CO)[C@H]1O2,1.01 ± 0.033,
COc1cccc(NC(=O)N2[C@H](CO)[C@H](c3ccccc3)[C@H]2CNCC(C)C)c1,1.1 ± 0.019,
COc1ccc2c3c([C@H](CO)N(C[C@]33CN(CC4CCOCC4)C3)S(C)(=O)=O)n(C)c2c1,0.992 ± 0.023,
C[C@@H](NC(=O)C[C@@H]1CC[C@@H]2[C@H](COC[C@@H](O)CN2C(=O)Nc2cccc(Cl)c2)O1)c1ccccc1,1.05 ± 0.025,
Cc1noc(C)c1NC(=O)Nc1ccc2c(c1)C(=O)N([C@@H](C)CO)C[C@@H](C)[C@@H](CN(C)S(=O)(=O)c1cccs1)OCCCC[C@@H](C)O2,1.09 ± 0.064,
